Source: paper PMC12136788
Some of the results follow.

T1: UNK ZnF1-3 (human, UniProt Q9C0B0 31-174)
T1 sequence: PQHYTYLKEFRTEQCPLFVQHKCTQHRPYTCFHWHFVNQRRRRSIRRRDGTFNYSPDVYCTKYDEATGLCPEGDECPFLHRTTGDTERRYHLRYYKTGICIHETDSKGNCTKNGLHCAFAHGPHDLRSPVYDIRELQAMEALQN

B1: 154691501_154692426_2298_CDS_ENSMUSG00000042772_ENSMUST00000043560|mouse|control|control (ssRNA)
RNA: GGGAGUUCUACAGUCCGACGAUCAUUCCACAGCUGUUUGGAGGCAUCUGCCUGUUGAUACUGCUGGAAUCCAGAGUGGUGAGGCGGGCUUUUCCCCAAAGCUGGUAUGACUUUUGUAGGGGAUUGCUGUUGCUGAGCUAGAGCCAACAGAGGAUUGAGCAUCA
B2: chr3:49759264:49759265:-_ENSG00000173540_ENST00000308388|hu_hu|FALSE|FALSE (ssRNA)
RNA: GGGAGUUCUACAGUCCGACGAUCGCCAAUAGACUUGUGGGGCAGCACGCUGGCUCCGUUGAGGUAGAGCUCAUCAUUAACUAUGACGUCCUCACCCAGCACUGUCACGUUCUCCAUGCGUACCCACUGACCCACGCGGCAGCGCAACAGAGGAUUGAGCAUCA
B3: chr6:91066717:91066718:-_ENSMUSG00000030091_ENSMUST00000032179|mus_hu|FALSE|FALSE (ssRNA)
RNA: GGGAGUUCUACAGUCCGACGAUCCGCAGCGGCGGAGGGGCCCGCCGCCAACAGCACCGACAGCGUCAGCAGCAGCAGCCCCCGGCCCCGCGCCGCCAUCCUCGCCGCGCGUCACCUCCCGCGACCCUGCGCCCGGCCGCCCGCCAACAGAGGAUUGAGCAUCA
B4: chr2:114714976:114714977:+_ENSG00000115091_ENST00000536059|hu_hu|FALSE|FALSE (ssRNA)
RNA: GGGAGUUCUACAGUCCGACGAUCAUAACUAUGAAGCCAAUUUUACGACAUGACUCCAAACACUGGAUUGUGACGACAAAUGCUAGGUCCAAUUUCUUCAUAAUCCUUUUUGGUGUGGCAUACUUGGUAGAACUCAGGCGUGGACAACAGAGGAUUGAGCAUCA
B5: chr8:108054885:108054886:-_ENSMUSG00000013160_ENSMUST00000013304|mus_mus|motif|central (ssRNA)
RNA: GGGAGUUCUACAGUCCGACGAUCUGAACGCUGGUGCAGUGUGCCUGUGAUUAGCAGGAUCACGUUGUCAAUCAUGUAGCGGUAAGUUAUGAAGUCCAGGAAGCUGGCGAGCGGCUCAUAAGCAUGGUUUCUCAUGUGGCGGAACAACAGAGGAUUGAGCAUCA
B6: chr11:33163239:33163240:-_ENSG00000176102_ENST00000323959|hu_mus|FALSE|FALSE (ssRNA)
RNA: GGGAGUUCUACAGUCCGACGAUCUCUGCCAGAACUGGGGAACUGGGCAACAAGGCGUUCGUAAGUCUUCCGUGCUUUGUCUAUAGGUUGAUUCUGUGCCUCUCGAAUGAGAAUGCUCCAAGCAUCAAGGUCAUAUGGAUUUUCCAACAGAGGAUUGAGCAUCA
B7: chr5:34944098:34944099:+_ENSMUSG00000029106_ENSMUST00000114338|mus_mus|FALSE|FALSE (ssRNA)
RNA: GGGAGUUCUACAGUCCGACGAUCCUGCUCCAUCAUAUUGAAGUCCUGACGAAGGUCUGGUGCCAUGUUCCUCUCCCGCAAAUAUUCUGGGUUGUUCUCAUCGACUCUGUCAAAAUACCUCUCCUUGUGAGGGGCUGUGGUUGGCAACAGAGGAUUGAGCAUCA
B8: chr17:2569311:2569312:+_ENSG00000007168_ENST00000397195|hu_hu|motif|central (ssRNA)
RNA: GGGAGUUCUACAGUCCGACGAUCUGUCCAUUUUUUUUCCAAAAGACCAGCAUACUUUUUAUCUAAUUCUUCAUUCACAUCGGAUUCAGCUUCCUUUUUAAAAACUGAAUAUGCCUCUUCAUAGCCAUUUGAACGAAGAUAAUCCAACAGAGGAUUGAGCAUCA
B9: chr11:100882373:100882374:+_ENSMUSG00000019302_ENSMUST00000044721|mus_hu|FALSE|FALSE (ssRNA)
RNA: GGGAGUUCUACAGUCCGACGAUCUUCCUGGUUUGUGUUGAUUUCCUUCAGUUCAUUUUCAAUCUUCUCAAAAUUGGCCUCUAAGUCAAUCAUGUCCCGGGGGAAGGGAACCUCUGGGUUUUCACCGGUGUCCAUAAUCGGAAUCAACAGAGGAUUGAGCAUCA
B10: chr12:48528548:48528549:+_ENSG00000152556_ENST00000359794|hu_mus|FALSE|FALSE (ssRNA)
RNA: GGGAGUUCUACAGUCCGACGAUCGAGCCGGCGACAAAGGUGUUCUUCCCAGUCAUCGUCUGGCGGACACUCAGGAAUAAAAACCCAGUCGGCCCCACAGGACAGAGAGGUGACAAGGGCCAGGUAUCCACAGUGGCGGCCCAUCAACAGAGGAUUGAGCAUCA
B11: 70739411_70748023_2279_CDS_ENSMUSG00000020817_ENSMUST00000076270|mouse|control|control (ssRNA)
RNA: GGGAGUUCUACAGUCCGACGAUCUUGAAUUUGCUCUUUUAGGAAAAGUAUUUCCGCCUUCAGCUUCUCUUCCAUGUGGUCUGCUGCUGUGCGCACAUGAACAAUGUUCUCACGAUAUUUUAAAACCAGUUCCCGGAGCACCUCCAACAGAGGAUUGAGCAUCA
B12: chr7:7679991:7679992:-_ENSG00000106399_ENST00000396682|hu_hu|hu_hu_hu_mus_False|18_18 (ssRNA)
RNA: GGGAGUUCUACAGUCCGACGAUCUGGGAUGAAUCUUUUCCAGCUUCCCCACGAAGCACACGGGCCGGUCGAUAUACUGUGGUAACAUGCUGGCGUUGACGCGCGCUUUGGGGAGCUCCAUCAUGUCCUCCAUGAUUCUGCCGCCAACAGAGGAUUGAGCAUCA
B13: chrX:117107323:117107324:-_ENSG00000003096_ENST00000371878|hu_hu|motif|central (ssRNA)
RNA: GGGAGUUCUACAGUCCGACGAUCUUUGAGCUGCAACAAUACAAAUGGGAUAUAAACCUCAGCAUAGCCUUAGGCGGCCGCGGAUAGAGAUCAGUGACUAAAUUCAGCAGCCUGCUUUCCUCCUGUGCAAGCUCUGGCCACACACAACAGAGGAUUGAGCAUCA
B14: 25675406_25677447_891_CDS_ENSG00000077097_ENST00000264331|human|control|control (ssRNA)
RNA: GGGAGUUCUACAGUCCGACGAUCUCUUUCAUUUGCAAGCUCAUGAAUAACUUUCAGGGCCACCCCAGUUUCAUCCAAUUUGUCUUUCACAUAAAGAUCUACAUAACUGCGAAAUCCAUUUACAGGCAAUUUCUUUCCAUUAAACAACAGAGGAUUGAGCAUCA

The binders below were run against T1, UNK ZnF1-3 (assay: nsRBNS (natural sequence RNA bind-n-seq); RBNS binding buffer (assumed for nsRBNS): 25 mM Tris pH 7.5, 150 mM KCl, 3 mM MgCl2, 0.01% Triton X-100, 500 ug/ml BSA, 20 U/ml SUPERase-In, 4 C; UNK is unkempt and MSI1 is Musashi-1; names of the RNAs are library labels; protein concentration not given here; high values mean tight binding).

Binder | binding signal [enrichment R]
B1 | 0.609
B2 | 0.952
B3 | 1.67
B4 | 1.21
B5 | 0.944
B6 | 0.474
B7 | 0.901
B8 | 0.715
B9 | 0.568
B10 | 0.781
B11 | 0.799
B12 | 0.785
B13 | 1.34
B14 | 0.94
